Source: publication PMC5540273 (PLoS ONE, 2017)
For some assays here: What follows is the remainder of the data, with few or none of the strong results. The list shows a part of the results, in another mix than the full data.

Experiments:
Settings in all cases: concentration: 1 μM,replicates: in singlicate; n = 1
[1] = system: T1, MST3
T1 construct: gene STK24

[2] = system: MST4
[3] = system: MTOR
[4] = system: MUSK
[5] = system: MYLK2
[6] = system: MYLK4
[7] = system: MYLK
[8] = system: MYO3A
[9] = system: MYO3B
[10] = system: T2, NDR1
T2 construct: gene STK38

[11] = system: NDR2
[12] = system: NEK10
[13] = system: NEK11
[14] = system: NEK1
[15] = system: NEK2
[16] = system: NEK3
[17] = system: NEK4
[18] = system: NEK5
[19] = system: NEK6
[20] = system: NEK7
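Further: KINOMEscan kinase panel screen.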

Compound | %Inh [1] [%] | %Inh [2] [%] | %Inh [3] [%] | %Inh [4] [%] | %Inh [5] [%] | %Inh [6] [%] | %Inh [7] [%] | %Inh [8] [%] | %Inh [9] [%] | %Inh [10] [%] | %Inh [11] [%] | %Inh [12] [%] | %Inh [13] [%] | %Inh [14] [%] | %Inh [15] [%] | %Inh [16] [%] | %Inh [17] [%] | %Inh [18] [%] | %Inh [19] [%] | %Inh [20] [%]
O=C1NC(=O)C(c2ccccc2)=C1Nc1cc(Cl)c(O)c(Cl)c1 [SB-390530] | 0 | 0 | 57 | 34 | 7 | 11 | 19 | 10 | 37 | 12 | 0 | 52 | 0 | 0 | 7 | 0 | 4 | 0 | 3 | 0
O=C1NC(=O)c2c1c(-c1ccccc1)cc1[nH]c3ccc(O)cc3c21 | 25 | – | 9 | 8 | 97 | 99.8 | 89 | 6 | 0 | 17 | 0 | 43 | 0 | 9 | 14 | 33 | 10 | 14 | 11 | 8
O=C1NC(=O)C(c2ccc(Cl)cc2)=C1Nc1cccc(O)c1 [SB-333613] | 21 | 32 | 42 | 10 | 8 | 0 | 43 | 0 | 0 | 28 | 10 | 50 | 0 | 0 | 12 | 11 | 15 | 0 | 0 | 10
O=C1NC(=O)C(c2ccc(Cl)cc2)=C1Nc1ccc(O)c(Cl)c1 [SB-405367] | 0 | 0 | 0 | 0 | 0 | 10 | 0 | 13 | 0 | 18 | 20 | 55 | 0 | 0 | 3 | 29 | 6 | 0 | 10 | 0
O=C1NC(=O)C(c2ccc(Cl)cc2)=C1Nc1cccc(C(=O)O)c1 [SB-360737] | 0 | 0 | 9 | 6 | 18 | 0 | 12 | 0 | 0 | 7 | 0 | 55 | 0 | 0 | 0 | 17 | 10 | 17 | 0 | 0
Cc1cc(C)cc(Oc2nccc(-c3c(-c4ccc(F)cc4)ncn3C3CCNCC3)n2)c1.O=C(O)C(F)(F)F.O=C(O)C(F)(F)F.O=C(O)C(F)(F)F [SB-284851] | 0 | 0 | 7 | 0 | 0 | 0 | 8 | 15 | 13 | 0 | 3 | 0 | 0 | 0 | 7 | 35 | 0 | 3 | 27 | 0
O=C1NC(=O)C(c2ccc(Cl)cc2)=C1Nc1ccccc1 [SB-317661] | 0 | 0 | 33 | 0 | 0 | 6 | 0 | 0 | 0 | 50 | 5 | 28 | 22 | 0 | 0 | 25 | 0 | 0 | 0 | 0
COc1cccc(C2=C(Nc3ccc(SC)cc3)C(=O)NC2=O)c1 [SB-331032] | 3 | 0 | 25 | 0 | 16 | 16 | 0 | 13 | 0 | 13 | 15 | 32 | 0 | 4 | 0 | 21 | 0 | 19 | 0 | 0
O=C1NC(=O)C(c2ccccc2Cl)=C1Nc1ccccc1 [SB-376715] | 0 | 1 | 5 | 0 | 10 | 8 | 12 | 4 | 0 | 2 | 28 | 56 | 26 | 0 | 73 | 0 | 0 | 0 | 0 | 1
CS(=O)(=O)c1ccccc1-c1nc(-c2ccc(F)cc2)c(-c2ccncc2)[nH]1 [SB-213663] | 0 | 0 | 0 | 0 | 0 | 0 | 100 | 19 | 0 | 0 | 4 | 6 | 0 | 0 | 0 | 12 | 0 | 0 | 0 | 0
Cc1ccc(C)c(Oc2nccc(-c3c(-c4ccc(F)cc4)ncn3C3CCNCC3)n2)c1.O=C(O)C(F)(F)F.O=C(O)C(F)(F)F.O=C(O)C(F)(F)F [SB-284852] | 16 | 0 | – | 0 | 0 | 0 | 17 | – | 15 | 51 | 0 | 0 | 0 | 0 | 97.4 | 28 | 0 | 0 | 7 | 0
O=C1NC(=O)C(c2ccccc2Cl)=C1Nc1cccc(C(=O)O)c1 [SB-390526] | 0 | 0 | 13 | 5 | 0 | 6 | 2 | 23 | 0 | 18 | 17 | 6 | 5 | 0 | 0 | 7 | 0 | 2 | 0 | 0
O=C1NC(=O)C(c2ccccc2)=C1Nc1ccc(Cl)c(C(=O)O)c1 [SB-390532] | 0 | 0 | 12 | 0 | 0 | 4 | 17 | 26 | 7 | 6 | 3 | 88 | 37 | 0 | 6 | 10 | 12 | 4 | 0 | 0
O=C(O)c1ccc(-c2nc(-c3ccc(F)cc3)c(-c3ccncc3)[nH]2)cc1 [SB-202620] | 10 | 4 | 0 | 0 | 3 | 15 | 0 | 0 | 26 | 34 | 12 | 6 | 0 | 0 | 0 | 20 | 0 | 4 | 13 | 0
COc1ccc(C2=C(Nc3cccc(Cl)c3)C(=O)NC2=O)cc1 [SB-326892] | 0 | 0 | 14 | 0 | 0 | 22 | 0 | 0 | 15 | 0 | 0 | 26 | 0 | 0 | 4 | 5 | 0 | 3 | 17 | 0
CSc1ccc(NC2=C(c3cccc(Cl)c3)C(=O)NC2=O)cc1 [SB-341528] | 4 | 0 | 0 | 0 | 0 | 6 | 0 | 0 | 0 | 13 | 13 | 0 | 11 | 0 | 3 | 16 | 3 | 0 | 2 | 0
